# ± gives the standard deviation of the averaged measurements. The list shows a part of the results.
# Tested on: PfAP2-LT AP2 domain (GST-tagged)
# Experiment: gcPBM binding intensity (ln(normalized median fluorescence intensity)); higher = stronger DNA binding
# Procedure, shortened: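 Each value is the highest Masliner-normalised natural-log median intensity across replicate spots of either orientation of a probe. The probes were primer-extended double-stranded 36-bp intergenic genomic sequences on an Agilent 4 × 180k array, alongside negative controls, exposed for 1 h to GST-tagged P. falciparum DNA-binding domains expressed in E. coli. Bound protein was picked up with Alexa488 anti-GST antibody and scanned at 488 nm.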
row,Sequence,gcPBM binding intensity (ln)
1,GTAAGCACACATAGTTGTACATTAATAAAAATAAAT [XGTACX_site5876],9.12 ± 0.51
2,TTCCTATAAAAAAACACACACATATAAATATATATA [CACACA_site2318],9.07 ± 0.35
3,AAAAAAAACGAACACACACACATTCAATATAAAACA [CACACA_site6170],9.76 ± 0.3
4,CAATGGTCATTTAGTTGTACTTAATTTTAAATCAAA [XGTACX_site4075],8.38 ± 0.35
5,ATATATGACAAATGTAGTACAAATTATTGTATCATA [XGTACX_site3675],9.01 ± 0.48
6,TTATTGCATATTTACACACGTACTAATTTAAACAAG [CACACA_site971],8.91 ± 0.49
7,AGAATATTTAAAAAAGGTACACAAAAACCAAAATAA [XGTACX_site8569],8.88 ± 0.46
8,ATAAATTCATATATGAGTACTAAAAATATCTTTTTC [XGTACX_site5541],8.7 ± 0.4
9,TATTAATACAGACACACACACACACCCAATAAAATA [CACACA_site243],10.29 ± 0.05
10,AAAAACTATTGTAGGACACACAAAATTCCAATTTTA [CACACA_site1701],8.87 ± 0.45
11,ATATATATAAAACACACACACACATGTTTTAAAACT [CACACA_site78],9.76 ± 0.18
12,AAGTAATTTATGCATACACACATATATAAATATGTA [CACACA_site7813],8.96 ± 0.35
13,CACAAAAAGAAACACACACACATATATATTTATTAT [CACACA_site3646],9.76 ± 0.19
14,TATATATATATTTATACACACATTAGTGTATACATG [CACACA_site2950],9.23 ± 0.34
15,AAATAAATGTTATGCATACACACTTTATACCTATTT [CACACA_site3779],9.1 ± 0.42
16,ATATATATTAGGTATTGTACTTATATGCATATAAGT [XGTACX_site2700],8.81 ± 0.28
17,AATGAATGAATTATTTTGCGCTTATTATAGGACGAA [XGTACX_negctrl_site218],8.74 ± 0.41
18,TCTTTTATGTTTGTTTTTCCCTTTTTTTATGTTCCC [CACACA_negctrl_site1722],8.81 ± 0.53
19,TTTTTTTATTATTAAAGTACTAAAAAATGAAAACTG [XGTACX_site6758],8.06 ± 0.29
20,TGGGAATAAAAACACACACACACACCGATATATATA [CACACA_site5875],10.1 ± 0.41
21,TATAATAAAAAATGTACACACATAAGAAAATTTAAT [CACACA_site2901],9.1 ± 0.41
22,GACTATTTTAATATTTTACACACCATGTAAAATATA [CACACA_site9050],8.82 ± 0.36
23,ACATAATAAAAAAAACGTACAAATAGGTTTTTCATA [XGTACX_site6645],8.85 ± 0.57

row,Sequence,gcPBM binding intensity (ln)
1,TATATATATATATACACACACACCGTCCGTGTTAAA [CACACA_site2979],9.83 ± 0.33
2,ATATATTAAAACCTAGTGCATTTGTACATATTTCAA,8.71 ± 0.41
3,AGGTTAAAACATATATATATATATATATATATATAT [XGTACX_negctrl_site333],10 ± 0.21
4,TTATACAGGACAATAGTGCACATAAATATATGTATA,9.04 ± 0.44
5,GCAGTCAAAAAGGAAAATATAAAAAAAGTATATGTG [GTGCAC_negctrl_site95],8.71 ± 0.47
6,TATTTACAAATAAAAAGTACATAAACTAATATCTTT [XGTACX_site2181],8.53 ± 0.43
7,ATCTGTACAGTTTTTGCACACATATAAATAAAAAAA [CACACA_site9198],8.98 ± 0.42
8,TTGTTTGTAAACAGATGTACATATAAAAATATATAT [XGTACX_site3370],8.72 ± 0.42
9,TATATTAGAAAGGATACACACATATATAAATATCTA [CACACA_site6411],8.85 ± 0.41
10,ATATATATATATATATGTACATATATTTGTAATGTC [XGTACX_site8074],9.83 ± 0.13
11,TTTATTATGTAAGCATGTACATGATGTATATATTTA [XGTACX_site5021],8.77 ± 0.45
12,ATTTTTTAAAATATTTGTACATATATAATGCATATA [XGTACX_site7026],8.62 ± 0.43
13,CACAGACACGGACACACACACACACCGATATATATA [CACACA_site4353],9.88 ± 0.24
14,TAAATACTTATATGTACACACATATAGATATATATT [CACACA_site2553],8.96 ± 0.33
15,ATATAAATAAATGTATGTACATATATTTATATGCAT [XGTACX_site4185],8.78 ± 0.33
16,GAAAAATTGAATTTGGGTACATATAAATATTATATT [XGTACX_site2363],8.53 ± 0.38
17,ATAAATATTAGCAGTTGTACAATAAATATATGTAAT [XGTACX_site2534],8.97 ± 0.43
18,TTCCCTATATAGAGCATGCACTATATTCAAATGATG,8.72 ± 0.42
19,TTAGATATAAAAGCATGTACTTGTATAAAATATATA [XGTACX_site8272],8.54 ± 0.49
20,TTATCAAATGAGTGTTGTACGTCTTTTGAAATACCA [XGTACX_site8804],8.49 ± 0.34
21,TCAGATCCATAGAAGGTGCAAATAACAAAAATACAA [GTGCAC_site9610],8.96 ± 0.54
22,TAATTTTTCTTATATAGTACACAAAAAGAAAATTAC [XGTACX_site6393],8.31 ± 0.35

# From the supplement of paper PMC11417369
